In patent US10280198B2, “Therapeutic agents for reducing parathyroid hormone levels” (KAI PHARMACEUTICALS, INC., priority 2009, dated 2019):
For some assays here: Part of at least one peptide drawing is inferred or uncertain, most often the ends. For some assays here: At least one structure is not confirmed: it was looked up by name or label, or the drawing left a doubt. Some entries share one result that the patent states for a list of compounds. Some compounds share one range, which may span the group rather than tell each member. Square brackets hold non-standard residues; d marks the D form. Peptide text beside a SMILES is read from it.

Columns and labels:
serum calcium = experiment: Serum calcium in 1K1C model rats after 6 hour IV infusion; settings: 1K1C rats, 6 hours IV infusion 30 and 100 μg/kg/hr, FIG. 14B
plasma PTH [1] = experiment: 1K1C rat model of acute renal insufficiency, plasma PTH after dosing; type: in vivo; settings: 1K1C rats, FIG. 8
Source text: A rat model of acute renal insufficiency (also referred to as the 1K1C model) was developed to simulate the pathology of SHPT associated with end stage renal disease. […] The development of this model allowed for the further characterization of described compounds in the context of a subject with renal dysfunction and elevated PTH. Typical baseline PTH levels in this model averaged ˜450 pg/mL.
The ensuing ischemia/reperfusion (I/R) damage to the remaining kidney results in significant necrosis and renal failure. Serum creatinine levels were elevated for over 24-48 hours following I/R insult (data not shown). […] By 48 hours post-I/R, plasma PTH levels were elevated to ˜450 pg/mL (˜5 fold increase) and in some instances reach as high as ˜1200 pg/mL. This reproducible increase in serum creatinine and PTH provided a robust model that mimics the physiology seen ESRD patients.
The protocol used in this study is as follows. Male Sprague Dawley rats were purchased from Charles River Laboratories (Hollister, Calif.; requested purchase weight 250-275 g). […] Animals were maintained in a temperature-controlled environment with a constant 12 hours light/12 hours dark cycle and free access to food and water at all times. All experimental procedures with animals were performed according to IACUC guidelines.
General anesthesia was induced and maintained by intraperitoneal (IP) injection of sodium pentobarbital (5.2%, 0.4 mL/rat). For animals that received 45 minutes of renal ischemia an additional IP injection of sodium pentobarbital (5.2%, 0.1 mL/rat) was given to maintain the anesthetic plane. Blood sampling for PTH measurements following administration of compounds in normal rats was done under continuous isoflurane anesthesia.
For model development studies, the left femoral vein was cannulated with a PE-10 tube for blood drawing. Both kidneys were exposed via a laparotomy. […] Physiological parameters including body temperature (36-37.5° C.) and body weight were measured throughout the procedure. Body temperature was monitored and maintained using a heat pad rectal probe feedback system. […]

plasma PTH [2] = experiment: Micropore-facilitated transdermal delivery, plasma PTH in rats; settings: normal rats, microneedle array and transdermal patch with 10% solution, FIG. 12
plasma PTH [3] = experiment: In vivo PTH lowering after IV bolus in isoflurane-anesthetized normal Sprague Dawley rats; design: species or system rat; settings: for duration of decreased PTH: 0.5 mg/kg IV bolus, FIG. 5; for 0.5 mg/kg IV bolus % PTH AUC of saline control: AUC 1-4 h
Experimental: The peptides were administered intravenously at a dose of 0.5 mg/kg into isoflurane-anesthetized normal Sprague Dawley rats. A control group of rats was treated with saline. Blood was drawn prior to dosing and every hour for 4 hours. Rats were maintained under isoflurane anesthesia for the entire study. […] Percent PTH reduction was calculated according to the following formula: AUCcmpd treated/AUCsaline control*100.
An intravenous (IV) bolus of saline was used as a control. Plasma (K2EDTA) PTH levels were assessed prior to dosing and 1, 2, 3 and 4 hours after dosing. Rats were maintained under isoflurane anesthesia for the entire study. […] In FIG. 2B, PTH is shown as percent of the baseline pre-dose value.
A series of compounds having an L-amino acid residue substituted for a D-amino acid residue were prepared. The compounds were administered as an IV bolus to normal Sprague Dawley rats at a dose of 0.5 mg/kg. An intravenous (IV) bolus of saline was used as a control. […] Rats were maintained under isoflurane anesthesia for the entire study.

[4] = target: T1, human calcium-sensing receptor (CaSR) (Homo sapiens, UniProt P41180); experiment: In vitro cell assay in HEK-293 expressing the human calcium-sensing receptor (IP1 production); type: cell-based; settings: Table 5; IP1 production in HEK293 cells expressing human CaSR, eight concentrations in duplicate
T1 construct: expressed in transfected cells; host or cells: HEK 293T cells, transiently transfected (lipofectamine 2000); in some cases HEK293 cells stably transfected
T1 sequence (P41180 20-1078): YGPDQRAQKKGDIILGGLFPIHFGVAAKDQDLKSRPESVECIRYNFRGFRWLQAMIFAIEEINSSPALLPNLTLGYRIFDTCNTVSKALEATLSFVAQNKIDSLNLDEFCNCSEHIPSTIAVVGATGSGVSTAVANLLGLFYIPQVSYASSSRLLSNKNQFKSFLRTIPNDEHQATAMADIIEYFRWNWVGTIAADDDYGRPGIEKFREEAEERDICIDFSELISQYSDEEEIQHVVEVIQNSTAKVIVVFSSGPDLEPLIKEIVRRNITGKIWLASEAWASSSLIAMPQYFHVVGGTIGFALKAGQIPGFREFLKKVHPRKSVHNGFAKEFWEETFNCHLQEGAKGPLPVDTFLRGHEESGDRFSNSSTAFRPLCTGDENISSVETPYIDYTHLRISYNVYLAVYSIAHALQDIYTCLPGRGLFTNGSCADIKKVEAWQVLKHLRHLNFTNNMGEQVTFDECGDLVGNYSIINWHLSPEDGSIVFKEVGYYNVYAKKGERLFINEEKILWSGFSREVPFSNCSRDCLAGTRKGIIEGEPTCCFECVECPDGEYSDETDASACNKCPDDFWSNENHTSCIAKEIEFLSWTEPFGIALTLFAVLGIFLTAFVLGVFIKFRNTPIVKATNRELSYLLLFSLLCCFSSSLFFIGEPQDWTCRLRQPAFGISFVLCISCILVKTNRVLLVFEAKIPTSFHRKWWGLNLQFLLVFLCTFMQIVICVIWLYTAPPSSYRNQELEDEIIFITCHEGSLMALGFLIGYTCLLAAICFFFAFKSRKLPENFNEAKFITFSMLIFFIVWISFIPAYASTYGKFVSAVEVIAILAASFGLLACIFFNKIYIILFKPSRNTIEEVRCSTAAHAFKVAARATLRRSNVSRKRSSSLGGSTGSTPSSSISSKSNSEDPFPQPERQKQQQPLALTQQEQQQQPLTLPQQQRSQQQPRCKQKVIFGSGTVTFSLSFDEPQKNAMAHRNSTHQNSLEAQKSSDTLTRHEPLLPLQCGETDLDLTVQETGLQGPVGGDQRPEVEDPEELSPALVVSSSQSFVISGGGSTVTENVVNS
Experimental: The activity of a variety of peptides and conjugates was tested against the human CaSR. These studies were conducted by measuring IP1 production in HEK293 cells that express the human CaSR. Each peptide was tested in eight different concentrations, in duplicates, to establish a dose response curve. Curve fitting was performed using GraphPad Prism. In Table 5, and throughout the specification, residues provided in capital letters are L-amino acids, while lower case letters indicate D-amino acids. “Ac” indicates an acetyl capping group, “NH2” indicates an amide capping group, “Ac-bAla” is an acetylated beta-alanine, “GSH” indicates reduced glutathione, “GS” indicates oxidized glutathione, “PEG” refers to polyethylene glycol, “PEG2” and “PEGS” refer to polyethylene glycol moieties of 2 kDa and 5 kDa, respectively, and “Mpa” refers to mercaptopropionic acid.
The day after, these cells were transfected with human CaSR receptor using lipofectamine 2000 transfection reagent 24 hrs post transfection, cells were seeded in 384 well plates at 8,000 cells/well. […] In some cases, EC50 values were determined by measuring inositol monophosphate production in the HEK293 cells, stably transfected with the human calcium-sensing receptor (see Table 1). […]
IP1 concentrations were calculated from standard curves (generated with Graph Pad Prism ver. 4) using known concentrations of IP1 standards.

CC(=O)N[C@H](CSSC[C@H](N)C(=O)O)C(=O)N[C@H](C)C(=O)N[C@H](CCCNC(=N)N)C(=O)N[C@H](CCCNC(=N)N)C(=O)N[C@H](CCCNC(=N)N)C(=O)N[C@H](C)C(=O)N[C@H](CCCNC(=N)N)C(N)=O [SEQ ID NO: 3, Ac-c(C)arrrar-NH2]
serum calcium (serum calcium): corresponding reduction in serum calcium | duration of reduced PTH blood concentration (plasma PTH [1]; IV bolus 3 mg/kg, 1 mg/kg and 0.5 mg/kg): more than 15 hours | duration of reduced PTH blood concentration (plasma PTH [1]; IV bolus, highest dose (3 mg/kg)): more than 24 hours | PTH course (plasma PTH [1]; IV bolus, lowest dose 0.3 mg/kg): reduced PTH at the earliest time point and an increase in PTH between hours 1-24 after dosing | duration of PTH reduction from baseline (plasma PTH [2]): > 30 h | PTH concentration as % of baseline 1 hour after IV administration (plasma PTH [3]; doses of greater than 0.1 mg/kg, normal rats, FIG. 7): less than 90% | reduction in PTH relative to the concentration before dosing (baseline) (plasma PTH [3]; therapeutically effective dose, IV bolus, normal rats, FIG. 7): greater than 50%

CC(=O)N[C@H](CS)C(=O)N[C@H](CCCNC(=N)N)C(=O)N[C@H](C)C(=O)N[C@H](CCCNC(=N)N)C(=O)N[C@H](CCCNC(=N)N)C(=O)N[C@H](CCCNC(=N)N)C(=O)N[C@H](CCCNC(=N)N)C(N)=O [SEQ ID NO: 9, Ac-crarrrr-NH2] (Ac-[dC][dR][dA][dR][dR][dR][dR]-NH2)
duration of decreased PTH (plasma PTH [3]; normal rats): 2 to 3 h

CC(=O)N[C@H](CS)C(=O)N[C@H](CCCNC(=N)N)C(=O)N[C@H](CCCNC(=N)N)C(=O)N[C@H](CCCNC(=N)N)C(=O)N[C@H](C)C(=O)N[C@H](CCCNC(=N)N)C(=O)N[C@H](CCCNC(=N)N)C(N)=O [SEQ ID NO: 11, Ac-crrrarr-NH2] (Ac-[dC][dR][dR][dR][dA][dR][dR]-NH2)
duration of decreased PTH (plasma PTH [3]; normal rats): 2 to 3 h

CC(=O)N[C@H](CS)C(=O)N[C@H](CCCNC(=N)N)C(=O)N[C@H](CCCNC(=N)N)C(=O)N[C@H](CCCNC(=N)N)C(=O)N[C@H](CCCNC(=N)N)C(=O)N[C@H](CCCNC(=N)N)C(=O)N[C@H](C)C(N)=O [SEQ ID NO: 13, Ac-crrrrra-NH2] (Ac-[dC][dR][dR][dR][dR][dR][dA]-NH2)
duration of decreased PTH (plasma PTH [3]; normal rats): 2 to 3 h

CC(=O)N[C@H](CS)C(=O)N[C@H](CCCNC(=N)N)C(=O)N[C@H](CCCNC(=N)N)C(=O)N[C@H](C)C(=O)N[C@H](CCCNC(=N)N)C(=O)N[C@H](C)C(=O)N[C@H](CCCNC(=N)N)C(N)=O [SEQ ID NO: 25, Ac-crrarar-NH2] (Ac-[dC][dR][dR][dA][dR][dA][dR]-NH2)
% PTH reduction of baseline at 1 hour post IV administration of 0.5 mg/kg compound (plasma PTH [3]; Table 2, isoflurane-anesthetized normal rats, 0.5 mg/kg IV, 1 hour): 4% | 0.5 mg/kg IV bolus % PTH AUC of saline control (plasma PTH [3]; Table 2, normal rats): 6%

CC(=O)N[C@@H](CSSC[C@@H](NC(C)=O)C(=O)N[C@H](C)C(=O)N[C@H](CCCNC(=N)N)C(=O)N[C@H](CCCNC(=N)N)C(=O)N[C@H](CCCNC(=N)N)C(=O)N[C@H](C)C(=O)N[C@H](CCCNC(=N)N)C(N)=O)C(=O)O [SEQ ID NO: 55, Ac-c(Ac-C)arrrar-NH2]
0.5 mg/kg IV bolus % PTH AUC of saline control (plasma PTH [3]; Table 8, normal rats): 38% | EC50 [4]: 21 µM
